# Hit rate of the full screen: of about 150,000 compounds, about 540 (0.36%) showed an effect of 50% or more. This is one part of the list.
# Test system: Plasmodium falciparum
# Assay: Primary screen in NF54 nanoGlo assay, in single point, at 2uM, 72h; a lower Z score goes with more inhibition
# Type: functional, Erythrocyte
# Details: timepoint 72 hour
SMILES,% Inhibition,Z score
COc1cccc(NC(=O)Cn2c(C)ncc(-c3nc(-c4ccccc4)cs3)c2=O)c1,-4%,0.55
CNC(=O)c1cc(S(=O)(=O)N2CC(Oc3cccc(C)c3)C2)cs1,4%,-0.66
CCc1n[nH]c(C(=O)N2CC3CCCN3CC2CC)c1Br (configuration not stated),29%,-1.03
Cc1cc(C#N)nc(NC2CCCCCC2)n1,-4%,0.49
COC(=O)CN[C@@H](C)C1CCOCC1,-10%,1.33
O=C(NCCN1Cc2cc(Cl)ccc2OCC1=O)c1cnccn1,-13%,2.22
FC1(F)CC(COc2ncccn2)C1,10%,-1.67
COC(=O)C1CCN(c2cc(=O)n(-c3ccccc3Cl)c(=O)[nH]2)CC1,-12%,2.34
CCCN1CCN(c2ncc3c(n2)CCN(Cc2ccc(C)c(C)c2)C3)CC1,0%,0.03
O=C(Nc1nnc(-c2c(F)cccc2Cl)s1)N1CC2CCC1CN2 (configuration not stated),-7%,0.64
Cc1nc(-c2cccc(NC(=O)C3CN(C(=O)COc4ccccc4F)C3)c2)cs1,-2%,0.34
CCOC(=O)C(C)C(C)Nc1ncc(F)cn1 (configuration not stated),-8%,1.2
Cc1ccc(C(=O)N2CC3(C[C@H](N4CCCC4)CO3)C2)s1,-21%,2.48
COc1ccc(F)cc1-c1cc(-c2ccc[nH]2)nc(N)c1C#N,6%,-0.89
COc1cc(CNCc2ccc(C)cc2)cc(Cl)c1OCc1cccs1,-32%,3.78
Cc1ccc(CN(c2ccc(C(=O)NC3CCN(C)CC3)cc2)S(C)(=O)=O)cc1,1%,-0.19
CCN(CCNC(=O)C1CC1c1cccc(Cl)c1Cl)CC(F)F (configuration not stated),37%,-4.14
CCC1=Nc2ccccc2N=C(NC(=O)C(C)C)[C@H]1c1ccc(F)cc1,64%,-2.85
CCc1cc(NCc2cc(=O)cc[nH]2)nc(CC)n1,-11%,2.04
CN1CCN(CC(=O)Nc2nc(-c3ccc(Cl)cc3)cs2)CC1,-18%,2.6
COc1ncc(NC(=O)Nc2cccc(C(F)(F)F)c2)c(N2CCCC2)n1,25%,-3.84
CN1CCC(NC(=O)N2CCCCC2CCO)C1c1ccc(F)cc1 (configuration not stated),-5%,0.57

SMILES,% Inhibition,Z score
CC(C)CCn1ccc(NC(=O)N2CCCN(C)CC2)n1,-9%,1.09
Cc1ncoc1CNC(=O)[C@H]1CC(=O)N(C)[C@@H]1c1cccc(F)c1,-9%,1.26
c1ccc(-c2nc(CN3CCc4sccc4C3)cs2)nc1,-6%,1.14
Cc1c(NC(=O)CCn2nnnc2C)c(N2CCCC2)nn1C,-9%,1.83
CC(C)c1nnc(CN(C)c2ccc(F)c(F)c2)o1,-1%,0.15
Cc1ccc2oc(CN(Cc3cc(F)ccc3F)C(=O)C3C[C@@H]3c3ccccc3)nc2c1 (some centres not stated),3%,-0.34
CCc1nn(C)c(Cl)c1CN1CCCC[C@H]1C(=O)NC,13%,-1.24
N#Cc1cc(S(=O)(=O)NCC(F)(F)F)ccc1NCC1CC1,0%,0.05
Cc1ccc(N2CCN(Cc3nc(C(=O)Nc4ccc(F)cc4)co3)CC2)cc1,-14%,1.33
Cc1noc(C)c1CN1CC(c2nc(CCN(C)C(=O)C3CCOCC3)no2)C1,1%,-0.12
COc1ccc(OCc2nc3ccc(F)cc3o2)c(C(N)=O)c1,-14%,1.44
O=C(c1n[nH]c2c1CCCC2)N1CCCCC1,-10%,1.52
COCc1noc([C@@H]2CN(C(=O)CCc3c(C)noc3C)C[C@H]2C(N)=O)n1,-14%,2.13
COc1cccc([C@H]2CN(Cc3csc(C)n3)C[C@@H]2C(=O)O)c1OC,-6%,0.78
CCNC(=O)Cn1ccc(N[C@@H](C)COC)n1,-7%,0.94
COC(=O)c1cccc(NCc2nc3cccnc3s2)c1,-2%,0.18
CNC(=O)[C@@H]1CCCN1c1ccc2nnc(C(F)(F)F)n2n1,-10%,1.71
Cc1ccsc1-c1nc(-c2ccc(S(=O)(=O)N3CCC(C)CC3)cc2)no1,-5%,0.82
CC(C)C[C@@H](NC(=O)Nc1cccc(F)c1)C(=O)OC(C)(C)C,0%,-0.02
CCC1CCCCN1C(=O)CC1(c2ccccc2OC)CC(=O)N(CCCOC)C1=O (configuration not stated),16%,-2.14
CCc1nc(COc2ccc(C(=O)N3CCC[C@H](C(=O)O)C3)cc2)no1,-10%,1.34
C[C@H](NC(=O)c1[nH]cnc1C(=O)c1ccccc1)c1nccs1,0%,-0.05

SMILES,% Inhibition,Z score
CCCc1oncc1C(=O)N1CCCN(CC2CC2)[C@H](C(C)C)C1,23%,-3.16
CCN(CC)C(=O)c1ccc(N)c(C)c1,-11%,2
CC(C)c1nc(CC(=O)NC(C)C2CCCO2)cs1 (configuration not stated),-4%,0.59
Cn1cc(CCN2CCCC[C@H]2C(=O)OC(C)(C)C)cn1,-10%,1.99
COCCNCCOc1cccc(Br)c1,-11%,1.54
Cc1nccc(NC2CCCCCC2CO)n1 (configuration not stated),1%,-0.14
Cc1cccc(C(=O)N2CCC[C@H]2C(=O)Nc2cc(Cl)ccc2Cl)n1,-3%,0.32
Cc1nn(C)c(-n2cccn2)c1C(=O)NCC(C)(C)O,-3%,0.55
C/C=C(\C)CN1C[C@H](NC(=O)CN2CCCCC2=O)[C@@H](C2CC2)C1,-5%,1.02
Cc1nccc(-c2ccccc2)c1C(=O)N1CCC[C@H](c2nc(CC(C)C)no2)C1,-16%,2.43
CN(CC[C@H]1CCCCO1)C(=O)c1cc(Cl)c[nH]1,5%,-0.51
CCOC(=O)CN(CC)C(=O)c1cnn(C)c1,-6%,0.75
CC1(C)C[C@@H]1C(=O)N1CCCN(C(=O)C(F)(F)F)CC1,2%,-0.24
O=C(C1CCC1)N(CCN1CCCC1)[C@H]1CCCN(C2CCCC2)C1,-2%,0.32
NS(=O)(=O)c1ccc(CNc2cc(C3CC3)ncn2)cc1,-8%,1.17
CCCN1C(=O)COc2cc(-c3noc(C(=O)NCCc4ccccc4)n3)ccc21,-7%,0.86
CS(=O)(=O)N(CCCN1CCOCC1)[C@H]1CCN(C(=O)NCCc2ccccc2)C1,-6%,0.65
CCn1ncc(CNC(=O)NC[C@H]2CS(=O)(=O)c3ccccc32)n1,-11%,2.04
O=C(Nc1cccc2c1CCCC2)c1ccc2c(c1)OCO2,-11%,1.42
Cc1cccc(NCC2CC(O)CN2Cc2ccccc2)n1 (configuration not stated),14%,-2.07
Cc1cnc(C)c(N2C[C@@H]3OC(=O)N(Cc4ccccn4)[C@@H]3C2)n1,-2%,0.35
O=C(NCc1cnccc1C(F)(F)F)c1cncc(N2CCOCC2)c1,-10%,1.61

SMILES,% Inhibition,Z score
Cc1cc(-c2ccc(C(C)C)cc2)n(-c2ccccn2)n1,-16%,2.17
O=c1c2c(-c3ccc(Cl)cc3)noc2ncn1Cc1ccccc1F,-1%,0.12
CCC(CC)c1nnc(NC(=O)[C@@H]2COc3ccccc3O2)s1,-7%,1.06
COc1cc2c(cc1OC)CN(C(=O)C[C@H]1CNCCO1)CC2,-9%,1.43
COCC(=O)N[C@@H](C(N)=O)c1ccc(F)cc1,-1%,0.15
CC(C)c1nnc(-c2ccc(=O)n(CC(=O)Nc3ccccc3)c2)o1,-6%,0.99
C#Cc1cccc(NCc2cc(=O)n3cc(C)ccc3n2)c1,-7%,0.67
COc1ccc(NC(=O)[C@@H]2COc3ccccc3O2)cc1S(=O)(=O)N1CCOCC1,-16%,1.82
CCNS(=O)(=O)[C@H]1CCN(c2nnc(C3CCC3)n2CC)C1,4%,-0.52
C=CCn1cc(CN[C@@H](C)c2nc(-c3ccccn3)no2)c(C)n1,2%,-0.3
O=C(NCCc1ccsc1)c1nc[nH]c1C(F)(F)F,31%,-3.45
CC(=O)N(C)c1cccc(NC(=O)NC(C)(C)c2cccc(F)c2)c1,-7%,0.55
CCC1(CC)CN(C(=O)c2cc(C(F)F)ncn2)CC[S@@+]1[O-],1%,-0.15
CCC1(CC)CN(C(C)C(=O)Nc2nccs2)CC[S+]1[O-] (configuration not stated),-1%,0.13
Cc1cc(C(=O)N2CCC[C@H]2c2nnc3ccccn23)c(C)o1,-3%,0.57
CCCc1nc(N2CCN(C(=O)c3ccc(Cl)c(Cl)c3)CC2)c2c(-c3ccc4ccccc4c3)noc2n1,-17%,1.72
CN(Cc1nccs1)C(=O)[C@H]1CCCN(c2ncnc3sccc23)C1,-14%,1.88
CC(C)[C@H](NC(=O)c1csc(-c2ccccn2)n1)C(=O)O,-14%,1.43
CCc1ccc(-c2cc(C)no2)cc1S(=O)(=O)N1CCCN(Cc2ccc(F)cc2)C1,4%,-0.5
Cc1nc(C#N)c(C#N)n1Cc1nnnn1-c1ccccc1,-11%,1.02

# — ChEMBL document CHEMBL4888484, “Replenishing the malaria drug discovery pipeline: Screening and hit evaluation of the MMV Hit Generation Library 1 (HGL1) against asexual blood stage Plasmodium falciparum ,using a nano luciferase reporter read-out” (2022)
